Reference: the RNAGym collection of RNA variant scans (doi:10.1073/pnas.2313332121)
Variants at the background level are over-represented here.

B1: TPR 5TU (parent)
chain: GGAUCUUCUCGAUCUAACAAAAAAGACAAAUCUGCCACAAAGCUUGAGAGCAUCUUCGGAUGCAGAGGCGGCAGCCUUCGGUGGCGCGAUAGCGCCAACGUUCUCAACUAUGACACGCAAAACGCGUGCUCCGUUGAAUGGAGUUUAUCAUG

Variants of: B1
Experiment: polymerase ribozyme fitness, log enrichment relative to wild type (log ratio); higher = more active; in vitro selection for triplet polymerase activity
Summary of the method: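 Fitness measures genotype enrichment against wild-type enrichment on a logarithmic scale, with inverse-variance-weighted averaging of replicates. The logarithm is base 2, and genotypes were kept only with ≥10 input reads and ≥1 read per output in Illumina sequencing. The sequenced libraries came from one triplicate in vitro selection round, including frozen incubation at −7 °C, of PCR-built, transcribed mutant libraries of each subunit of a heterodimeric triplet polymerase ribozyme.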

Variant	polymerase ribozyme fitness (log ratio)
G80A G84U U127G	≤ -4.2
C79U C96G A119G	≤ -4.2
G83U A89G C96U C99G G100C C123U U144C	≤ -4.2
G83U C93A C105G	≤ -4.2
U82C A115G	-0.965
U82C G88A U104C G143A	≤ -4.2
G84A A115C	-0.594
U82G G92U A97G A138C	≤ -4.2
G84A C87U U109G U139G U144C	≤ -4.2
G83C A147U	0.501
U82A G124A	0.114
G83C A98G	-3.71
G81U C85U	-0.466
G80C G128C U139G G140C	≤ -4.2
G83A A106G A119C	-0.0979
G83A C93U	-1.36
U82G A97G A98G C118A A119C G140C	≤ -4.2
C79U G86A C96U C149G	≤ -4.2
G81C C85U A89U A142G	-1.67
G83C C95U C96A C103G	≤ -4.2
G80U A91C A122U G136A G141C	≤ -4.2

Variant	polymerase ribozyme fitness (log ratio)
G80C G86C U139A	≤ -4.2
G84A G88A A110U U135C	≤ -4.2
G83A G117C U145G	-1.38
G83U	-0.478
G83A	-0.336
G83C	-0.934
G83U G140A U144A	≤ -4.2
U82G A98G G117A A122U	0.376
G83C C93G	≤ -4.2
G84A A89U G136U	-2.91
G80U C85U A91U G128C	≤ -4.2
C79U U90A A137G	≤ -4.2
G80C C87G G100U C118U G133U	≤ -4.2
C79U C85G U101G	≤ -4.2
G83A G88U C125A G152U	≤ -4.2
C79U C114G G140A	≤ -4.2
G84C A106C A122G A142G A150U	≤ -4.2
G80C C93G A115C U144C	≤ -4.2
G81U U82A G92A G152U	≤ -4.2
G81A G94A G143U	-2.83
G80A C99G U127C	-2.19

Variant	polymerase ribozyme fitness (log ratio)
U82C C96G A120U U127G	-2.72
G84C C96U C132G U144C	≤ -4.2
G84A U104C	-0.421
G83U A110U	-4.17
G83U A97G A142U	-3.29
C79U C85U A97U	≤ -4.2
G84A A138G G141A U144G	≤ -4.2
G83A G88U U104G C125U A147U U148C A150C	≤ -4.2
U82G G83A A89G A106G G128A	≤ -4.2
G83C G152C	-3.16
G81U G84A	-1.28
G81A A91G	-2.82
G83U A122C G133C A147C	-2.76
G81C A91U U151G	≤ -4.2
G83U C95G G124U U148C	≤ -4.2
G83U C93G	≤ -4.2
G81U A97U C105U	0.976
G83C U102G G143A	≤ -4.2
G83A G92C A97U U134A	≤ -4.2
G80C C85G U151G	≤ -4.2
G83U U146A	-1.19

Variant	polymerase ribozyme fitness (log ratio)
G81A U148C	-1.48
G80C G128U	≤ -4.2
G84A U144G	0.394
G84A C132G	-3.59
G83U U139G	-0.239
G83A C87A	≤ -4.2
G81A C96U C114G A115U	-3.6
G83A C85G C96A	≤ -4.2
G83U C123A	-0.709
U82G C87A	≤ -4.2
G83A A142G U148A	-4.11
G83A C85G U134C A142U	≤ -4.2
G81C G133U	≤ -4.2
G81A G86A C116A U148C	≤ -4.2
U82C C95A C118A U134G	≤ -4.2
C79U G84C	≤ -4.2
C79U G84U	≤ -4.2
G81C G94U A98U U146G	-0.695
G84A U151G	≤ -4.2
G83C G88C C149G	≤ -4.2
